Consider 58 compounds from PubChem BioAssay AID360 (National Center for Advancing Translational Sciences (NCATS), 2006).

SMILES strings stand for the structures. The whole screen tested about 48,000 compounds, of which about 550 (1.1%) were called active. Another 4% or so got no clear call; they are omitted. Rule as the data show it: active = potency below about 15 µM; inconclusive = mostly about 16 µM to 33 µM; inactive = weaker than that. The list shows a part of the results.
Potency is read from the fitted curve at half-maximal effect.

Chain of UniProt P04062 (P04062 whole entry, looked up): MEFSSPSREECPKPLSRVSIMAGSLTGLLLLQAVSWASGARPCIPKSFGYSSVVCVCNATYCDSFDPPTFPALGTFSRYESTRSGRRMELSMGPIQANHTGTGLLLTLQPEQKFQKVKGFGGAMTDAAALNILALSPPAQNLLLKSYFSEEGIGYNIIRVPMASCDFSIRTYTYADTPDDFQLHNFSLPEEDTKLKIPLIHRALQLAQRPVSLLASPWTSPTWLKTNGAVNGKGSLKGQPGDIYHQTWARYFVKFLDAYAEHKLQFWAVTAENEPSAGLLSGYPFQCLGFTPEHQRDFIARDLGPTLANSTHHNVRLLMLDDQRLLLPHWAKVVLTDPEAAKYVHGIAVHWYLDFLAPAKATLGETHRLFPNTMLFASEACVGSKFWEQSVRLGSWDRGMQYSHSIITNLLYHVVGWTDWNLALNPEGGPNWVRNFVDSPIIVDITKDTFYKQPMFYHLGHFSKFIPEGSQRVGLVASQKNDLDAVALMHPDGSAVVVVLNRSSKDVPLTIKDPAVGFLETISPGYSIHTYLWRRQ

This experiment has as its target Lysosomal acid glucosylceramidase (Homo sapiens) (UniProt P04062). Description: Glucocerebrosidase.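 Also: the screen sought inhibitors.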 As to conditions: purified enzyme, resorufin glucoside fluorescence (screen aimed at inhibitors), 20 min. The method, boiled down:
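Wild-type enzyme at 0.2 nM final in 50mM citric acid/KH2PO4, 10mM sodium taurocholate, 0.01% tween-20, pH 5.9, with resorufin beta-D-glucopyranoside at 30 uM final. Compounds titrated, 20 min at RT, red fluorescence read; AC50 from titration.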
`CC(C)c1ccc(NC(=O)N2CCC(c3nc4ccccc4o3)CC2)cc1`: the Potency was inactive: > 76.9 µM.

With `Cc1c(C(=O)N2CCN(c3ccccc3F)CC2)sc2nc(-c3ccccc3)cn12`, the Potency was inactive: > 76.9 µM.

Turning to `COc1cc(OC)cc(C2C(C#N)=C(N)Oc3n[nH]c(-c4cccnc4)c32)c1` (stereo not drawn), the Potency was inactive: > 76.9 µM.

In the case of `CCOC(=O)N1CCC(NC(=O)C(Cc2ccccc2)NC(=O)c2ccco2)CC1` (stereo not drawn), the Potency is inactive: > 76.9 µM.

Turning to `O=C(Nc1ccc2nc(-c3ccco3)[nH]c2c1)c1ccco1`, the Potency is inactive: > 76.9 µM.

In the case of `Cc1cc(C(=O)N2CCN(C/C=C/c3ccccc3)CC2)no1`, the Potency was inactive: > 76.9 µM.

Regarding `Clc1ccc(OCc2cn3cccnc3n2)c2ncccc12`, the Potency is inactive: > 76.9 µM.

On to `COc1cccc(NC(=O)Cc2nnc(SCCOc3ccccc3)n2C)c1`, for which the Potency was inactive: > 76.9 µM.

`CCN1CCN(c2nc3c(c(=O)n(C)c(=O)n3C)n2CCSc2ncccn2)CC1`: the Potency was inactive: > 76.9 µM.

As to `Cc1cccc(-c2nnc(N)s2)c1`, the Potency is inactive: > 76.9 µM.

With `O=C(O)C1C2C=CC(C2)C1C(=O)N1CCN(CCO)CC1` (stereo not drawn), the Potency is inactive: > 76.9 µM.

In the case of `N=c1ccccn1CC(O)COc1ccccc1` (stereo not drawn), the Potency was inactive: > 76.9 µM.

For the compound `COCCCn1c(SCC(=O)N(C)C)nnc1-c1ccccc1`, the Potency was inactive: > 76.9 µM.

Turning to `CC(=O)Oc1ccc(/C=c2\sc3ncnn3c2=O)cc1`, the Potency was inactive: > 76.9 µM.

For the compound `COc1cccc(Nc2cc(C)nc3ccccc23)c1`, the Potency was inactive: > 76.9 µM.

Regarding `Cn1nnnc1SCC(=O)Nc1ccccc1Cc1ccccc1`, the Potency was inactive: > 76.9 µM.

Turning to `CCS(=O)(=O)N1CCC(NC(=O)C2CCCCC2)CC1`, the Potency is inactive: > 76.9 µM.

As for `CCOC(=O)CSC1=NC(=O)CS1`, the Potency was inactive: > 76.9 µM.

For the compound `CCOc1ccc(C(=O)c2ccncc2)cc1`, the Potency is inactive: > 76.9 µM.

As to `O=C1C2C3C=CC(C3)C2C(=O)N1c1n[nH]c(CCc2ccccc2)n1` (stereo not drawn), the Potency was inactive: > 76.9 µM.

For `Cc1ccnc(NS(=O)(=O)c2ccc(NC(=O)C3CCCCC3)cc2)n1`, the Potency was inactive: > 76.9 µM.

Take `CCc1cc(C(=O)OC)c(N2C(=O)C3C4C=CC(C4)C3C2=O)s1` (stereo not drawn): the Potency was inactive: > 76.9 µM.

Take `CCOC(=O)c1c(C)c(C(=O)NCc2ccccc2OC)c(C)n1C`: the Potency was inactive: > 76.9 µM.

For `Cc1cc(C)cc(NC(=O)C2CCCN(c3nc(C)cc(C)n3)C2)c1` (stereo not drawn), the Potency was inactive: > 76.9 µM.

On to `COc1cc(CN2CCC(C(=O)NC3CCCC3)CC2)cc(Br)c1O`, for which the Potency was inactive: > 76.9 µM.

For `Cc1nnc(SCC(=O)N2CC(=O)Nc3ccccc32)n1-c1ccccc1`, the Potency is inactive: > 76.9 µM.

With `CCC1CCCN1Cn1cnc2c([nH]c3ccccc32)c1=O` (stereo not drawn), the Potency is inactive: > 76.9 µM.

In the case of `CCCN(CCC)CCNC(=O)C(NS(=O)(=O)c1ccc2c(c1)CCC(=O)N2)c1ccccc1` (stereo not drawn), the Potency is inactive: > 76.9 µM.

`CCOC(=O)c1ccc(N2C(=O)CC(SCC(N)C(=O)OCC)C2=O)cc1` (stereo not drawn): the Potency is inactive: > 76.9 µM.

`CCOC(=O)C1CCN(c2c(NCCCN(CC)c3ccccc3)c(=O)c2=O)CC1`: the Potency is inactive: > 76.9 µM.

As for `CN(c1cccc(NC(=O)c2ccccc2N(C)S(C)(=O)=O)c1)S(C)(=O)=O`, the Potency is inactive: > 76.9 µM.

For the compound `COc1ccc(OC)c(-n2cnc3cc(C(=O)O)ccc32)c1`, the Potency was inactive: > 76.9 µM.

With `Cc1[nH]nc(N=CC2=C(O)CC(C)(C)CC2=O)c1-c1ccccc1`, the Potency was inactive: > 76.9 µM.

`CCCCc1nc(SCC(=O)Nc2ccc(S(N)(=O)=O)cc2)n[nH]1`: the Potency was inactive: > 76.9 µM.

In the case of `O=C(Nc1ccc2c(c1)OCO2)C1CCN(S(=O)(=O)c2cccc3cccnc23)CC1`, the Potency is inactive: > 76.9 µM.

`C=CCOc1cccc(C2/C(=C(/O)c3ccc(Cl)cc3)C(=O)C(=O)N2CCN2CCOCC2)c1` (stereo not drawn): the Potency entry was “inactive”.

Regarding `Cn1c(=O)c2c(nc(CN3CCN(C(=O)c4ccco4)CC3)n2Cc2ccc(Cl)cc2)n(C)c1=O`, the Potency is inactive: > 76.9 µM.

Regarding `CCOC(=O)c1sc(N(Cc2ccccc2)C(=O)CN2C(=O)CN(C)C2=O)nc1C`, the Potency was inactive: > 76.9 µM.

For the compound `CC1CN(S(=O)(=O)c2ccc(NC(=O)c3ccco3)cc2)CC(C)O1` (stereo not drawn), the Potency was inactive: > 76.9 µM.

Turning to `CCN1CCN(Cc2ccccc2NC(=O)Nc2ccc(C)cc2)CC1`, the Potency was inactive: > 76.9 µM.

On to `O=C(NCC1COCCO1)C1CCN(S(=O)(=O)c2ccccc2)CC1` (stereo not drawn), for which the Potency was inactive: > 76.9 µM.

For `Cc1ccn2cc(CCNC(=O)CC(C)(C)C)nc2c1`, the Potency is inactive: > 76.9 µM.

Consider `CC(NC(=O)Cc1ccc(F)cc1)C(c1cccs1)N1CCN(C)CC1` (stereo not drawn), for which the Potency was inactive: > 76.9 µM.

Regarding `O=C(c1cn(-c2ccccc2)nc1-c1ccc(Cl)s1)N1CCOCC1`, the Potency was inactive: > 76.9 µM.

For the compound `O=C(NCc1ccco1)c1cnn2c(C(F)(F)F)cc(-c3cccs3)nc12`, the Potency is inactive: > 76.9 µM.

`COC(=O)CCCCC1SCC(NC(=O)OC)C1NC(=O)OC` (stereo not drawn): the Potency is inactive: > 76.9 µM.

In the case of `Nc1nnn(Cc2ccccc2)n1`, the Potency was inactive: > 76.9 µM.

Turning to `CC1CN(c2nc3ccccc3nc2C(C#N)C(=O)OC2CCCCC2)CC(C)O1` (stereo not drawn), the Potency is inactive: > 76.9 µM.

In the case of `CC1CCCC(C)N1C(=O)CSc1nnc(NC(=O)Cc2cccs2)s1` (stereo not drawn), the Potency was inactive: > 76.9 µM.

For `Cc1cc2ccccn2c1C(=O)c1ccncc1`, the Potency is inactive: > 76.9 µM.

As for `O=C(COC(=O)Cn1cnc2ccccc21)Nc1ccc2c(c1)OCCO2`, the Potency was inactive: > 76.9 µM.

Take `CC1CCCN(c2nc3c(c(=O)n(C)c(=O)n3C)n2Cc2ccccc2)C1` (stereo not drawn): the Potency is inactive: > 76.9 µM.

For the compound `O=C(Oc1ccccc1)c1ccc2nccnc2c1`, the Potency is inactive: > 76.9 µM.

For the compound `NC(=O)C1CCN(CC(=O)c2c[nH]c3ccc(F)cc23)CC1`, the Potency was inactive: > 76.9 µM.

As for `CC1CC(C)CN(CC(=O)N2CCc3[nH]c4ccccc4c3C2)C1` (stereo not drawn), the Potency was inactive: > 76.9 µM.

As for `Cc1cc(C)c(NC(=O)CSc2nnc(Cc3cccn3C)n2-c2ccc(F)cc2)c(C)c1`, the Potency was inactive: > 76.9 µM.

As to `O=C(Nc1cccc2ccccc12)c1cnccn1`, the Potency is inactive: > 76.9 µM.

On to `CC(=O)Nc1nc(C)nc(-c2ccccc2OC(C)=O)n1`, for which the Potency was inactive: > 76.9 µM.
